# In PubChem BioAssay AID1508623 (National Center for Advancing Translational Sciences (NCATS), 2021):
# About 450 (0.94%) of roughly 48,000 compounds were called active. Not shown: some 19% with an inconclusive outcome. Calls come from the whole dose curve; as a rule, active = well fitted inhibition curve with a large enough effect; inconclusive = small, poorly fitted or top-dose-only effect; inactive = no such curve, though single readings can be large or run the other way. The list shows a part of the results.
# Test: Primary qHTS for Identification of Small Molecule Inhibitors of Huntingtin Promoter Activity; note: nearly all actives have a fitted effect of over 50% in size
# Details: HEK293 HTT promoter firefly luciferase reporter (activity 0% = vehicle and -100% = no light), 24 h; series mostly up to 57.5 µM; activity change, negative = inhibition: at the top concentration
# Outline: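 Quantitative HTS used concentration series of up to 57.5 uM final on HEK293 luciferase reporter cells, 24 h at 37 degrees C. Readout was Dual-Glo firefly luminescence.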
row,SMILES,"activity change, negative = inhibition"
1,Cc1ccc2c(c1)N(C(=O)CCC(=O)NCc1cccs1)CC(C)O2 (configuration not stated),inactive: -10%
2,COC(=O)c1ccccc1NC(=O)Cn1c(CCC(=O)O)ccc1-c1ccc(C)cc1,inactive: -5.75%
3,Cc1cccc(CC(=O)Nc2c(C(=O)Nc3cccc(F)c3)oc3ccccc23)c1,inactive: -9.95%
4,Cc1cc(NC(=O)CSc2ncc(C(=O)Nc3ccc(C)c(C)c3)c(=O)n2C)no1,inactive: -0.629%
5,CC1=C(C(=O)Nc2cccnc2)C(c2ccccc2Cl)n2nc(-c3ccccc3)nc2N1 (configuration not stated),inactive: -6.48%
6,Cc1ccc(NC(=O)CCSc2nc(-c3ccc4c(c3)OCO4)cc(C(F)(F)F)n2)c(C)c1,inactive: 4.32%
7,CCOc1ccccc1C(=O)NCc1ccc2c(c1)CCN2C(=O)c1ccccc1,inactive: -31.2%
8,Cc1cc(C)c2oc(-c3cccc(NC(=O)COc4ccccc4Cl)c3C)nc2c1,inactive: 10.1%
9,CS(=O)(=O)c1ncc(Cl)c(C(=O)Nc2c(C(=O)c3ccc(Cl)cc3)oc3ccccc23)n1,inactive: -13.3%
10,COc1ccc(CCNC(=O)c2ccc(Cn3c(SCC(=O)NCCC(C)C)nc4cc5c(cc4c3=O)OCO5)cc2)cc1OC,inactive: -13.5%
11,Cc1ccc2nc(CN3CCN(S(=O)(=O)c4ccc(C)c(C)c4)CC3)oc2c1,inactive: 1.55%
12,O=C(Nc1ccc2oc(-c3ccc4ccccc4c3)nc2c1)c1cc(Cl)ccc1Cl,inactive: -19.2%
13,CC(=O)c1c(C)n(-c2ccc(C)cc2)c2ccc(OC(=O)COc3ccccc3)cc12,inactive: -25.7%
14,Cc1ccc(C2CC(=O)n3nc(-c4cccc(C)c4)nc3S2)cc1 (configuration not stated),inactive: 8.93%
15,CN(C)c1ccc(CNC(=O)C2CCN(S(=O)(=O)c3ccc4[nH]c(=O)ccc4c3)CC2)cc1,inactive: -2.74%
16,COc1cc(-c2ccno2)ccc1S(=O)(=O)N1CCN(c2ccccc2)CC1,inactive: -16.8%
17,CC(C)C(=O)Nc1nnc(SCc2cc(=O)n3ccccc3n2)s1,inactive: -3.75%
18,CCNc1sc(S(C)(=O)=O)nc1S(=O)(=O)c1ccc(C)cc1,inactive: -21.5%
19,CCCCc1nn2c(=O)cc(COC(=O)c3cccs3)nc2s1,inactive: 19.2%
20,Cc1ccc(Cn2c(=O)n(Cc3ccccc3Cl)c(=O)c3cccnc32)cc1,inactive: -3.62%
21,Cn1c(=O)n(C)c2cc(N3CCCC3)c(NC(=O)Nc3ccccc3)cc21,inactive: 10.7%
22,CCc1ccc(NC(=O)CCNC(=O)Cn2cnc3ccccc3c2=O)cc1,inactive: -6.79% [at 11.5 µM]
23,Cc1ccc(CNC(=O)c2cccc(Nc3nc4ccccc4n4nnnc34)c2)cc1,inactive: 19.4%

row,SMILES,"activity change, negative = inhibition"
1,COC(=O)c1ccccc1NC(=O)Cn1c(=O)n(CCCCC(=O)NCc2ccc3c(c2)OCO3)c(=O)c2ccccc21,inactive: -2.68%
2,COc1cc(OC)c(NC(=O)c2c(C)oc3ncnc(N4CCCCC4)c23)cc1Cl,inactive: 11.3%
3,Cc1ccc(N2CCN(c3nc4ccccc4c4nnc(C)n34)CC2)c(C)c1,inactive: -0.868%
4,Cn1c(=O)c2c(nc(N3CCOCC3)n2Cc2ccccc2)n(C)c1=O,inactive: -4.94%
5,Cc1cccc(C)c1NC(=O)Cn1cc(S(=O)(=O)Cc2ccc(F)cc2)c2ccccc21,inactive: -19.5%
6,Cc1cc(C)cc(NC(=O)Cn2c(=O)n(CC(=O)NCCc3ccccc3)c(=O)c3ccccc32)c1,inactive: -8.94%
7,COc1ccc(C(=O)Nc2nnc(SCc3cc(=O)n4cc(Cl)ccc4n3)s2)cc1,inactive: 28.7%
8,Cc1ccc(CNC(=O)CN2C(=O)COc3ccccc32)cc1,inactive: 34.4%
9,Cc1noc(-c2ccc(-c3noc(-c4ccccc4)n3)cc2)n1,inactive: 37%
10,CCC(C(=O)NCc1ccc2c(c1)CCN2C(=O)c1ccc(F)cc1)c1ccccc1 (configuration not stated),inactive: -6.39%
11,CCOC(=O)c1cc(-c2ccc(C)cc2)n(CCC(=O)Nc2cc(Cl)ccc2C)c1C,inactive: 6.57%
12,CC(=O)c1cc(-c2ccccc2)n(CCC(=O)Nc2nc3c(C)cccc3s2)c1C,inactive: -15.8%
13,CCOc1ccc(CCNC(=O)c2cc(Nc3ccc(C)cc3C)nc3ccccc23)cc1OCC,inactive: 13%
14,CC1CCN(S(=O)(=O)c2ccc3[nH]cc(C(=O)NCc4ccc(F)cc4)c(=O)c3c2)CC1,inactive: -1.78%
15,O=C1Cc2cc(S(=O)(=O)N3CCCCC3)cc3c2N1CCC3,inactive: -16.4%
16,Cc1ccc(N2CC(NC(=O)Cc3ccc(F)cc3)CC2=O)cc1 (configuration not stated),inactive: -16.6%
17,Cc1cccc(CSc2nc(=O)c3c(n2C)NC(=O)CC3c2cccc(O)c2)c1 (configuration not stated),inactive: -12.9%
18,Cc1ccc2c(c1)sc1nc(-c3cc4cc(Cl)ccc4oc3=O)cn12,inactive: -27.1%
19,COc1ccccc1NC(=O)Cn1c(=O)n(-c2cccc(Cl)c2)c(=O)c2sc3ccccc3c21,inactive: -13%
20,COc1cc2[nH]c(=O)n(Cc3ccc(C(=O)NCc4ccc(C)cc4)cc3)c(=O)c2cc1OC,inactive: -22.7%
21,O=C(Cn1c(=O)n(Cc2ccc(C(=O)NCc3ccc4c(c3)OCO4)cc2)c(=O)c2ccccc21)Nc1cccc(Cl)c1,inactive: -6.33%
22,Cc1cnc(NC(=O)Nc2cc(Br)c(C)cc2OC[C@@H]2CNCCO2)cn1,inactive: -27.7%
23,CC1=C(C(=O)Nc2cccc(C(F)(F)F)c2)C2(CCCCCC2)OC1=O,inactive: -9.21%

row,SMILES,"activity change, negative = inhibition"
1,CC(C)CCn1c(=O)c2sccc2n2c(CCCC(=O)Nc3ccc(C(C)C)cc3)nnc12,inactive: -13.7%
2,COc1ccc(N2CCN(c3nc4ccccc4n4c(C)nnc34)CC2)cc1,inactive: -5.06%
3,CCOc1ccc2nc(NC(=O)c3nc(SCc4ccc(C)cc4)ncc3Cl)sc2c1,inactive: -9.99%
4,Cc1ccc2occ(CC(=O)Nc3c(C(=O)Nc4ccc(Cl)cc4)oc4ccccc34)c2c1,inactive: 7.16%
5,CC(C)COc1ccc(C(=O)N2CCC(c3nc4ccccc4s3)CC2)cc1,inactive: -21.9%
6,O=C(CC1N=C2c3ccccc3N=C(SCC(=O)Nc3ccccc3F)N2C1=O)NCc1ccc2c(c1)OCO2 (configuration not stated),inactive: 7.32%
7,Cc1cccc(C)c1NC(=O)CN(C)S(=O)(=O)c1ccc2[nH]c3c(c2c1)CCCC3,inactive: -22.8%
8,CN(C(=O)CSc1nc2ccccc2[nH]1)c1ccc(F)cc1,inactive: 7.42%
9,Cc1ccc(CSc2nncn3c2cc2sccc23)cc1,inactive: 2.21%
10,Cc1c(C(=O)Nc2ccc(N3C[C@@H](C)O[C@@H](C)C3)nc2)cccc1-c1ccc(OC(F)(F)F)cc1,inactive: 5.8%
11,Cc1cccc(N2C(=O)N(Cc3ccc(C(C)(C)C)cc3)c3ccccc3S2(=O)=O)c1,inactive: -23.7%
12,COc1ccccc1NC(=O)C1=C(C)Nc2nc(SCC(=O)c3ccc(C)cc3)nn2C1c1ccc(F)cc1 (configuration not stated),inactive: -2.74%
13,CC1CCCN(S(=O)(=O)c2cc(C(=O)NCCc3ccccc3)n(C)c2)C1 (configuration not stated),inactive: -8.98%
14,Cc1ccccc1CNC(=O)c1ccc(Cn2c(SCc3ccccc3)nc3cccnc32)cc1,inactive: -13.4%
15,Cc1ccc(-c2nc(CNC(=O)NC3CCCCC3)c(C)o2)cc1,inactive: 0%
16,COc1ccc(CNc2nc(-c3ccco3)nn2C(=O)c2ccccc2C)cc1,inactive: 16.2%
17,CCc1ccc(C(=O)Nc2cccc(-c3nc4cc(C(C)C)ccc4o3)c2)cc1,inactive: -4.16%
18,CC(=O)c1cccc(NC(=O)Nc2cc3c(cc2N2CCCC2)n(C)c(=O)n3C)c1,inactive: -3.23%
19,Cc1ccc(Cl)cc1NC(=O)c1ccc2nc(CCc3ccccc3)oc2c1,inactive: -31.1%
20,CCn1cc(C(=O)NCc2ccccc2Cl)c(=O)c2cc(S(=O)(=O)N3CCCCCC3)ccc21,inactive: 10.7%
21,CCOc1ccc(Nc2oc(-c3ccc(COc4ccc(C)cc4)o3)nc2C#N)cc1,inactive: -20.8%
22,COc1ccc(NC(=O)c2nnn(CC(=O)Nc3cc(C)cc(C)c3)c2N)c(OC)c1,inactive: -2.76%
23,CCN(C(=O)c1cc(S(=O)(=O)N2CCCC2)cn1C)c1ccc(OC)cc1,inactive: 15%

row,SMILES,"activity change, negative = inhibition"
1,CCCCC(=O)Nc1ccc(C(=O)OCc2cc(=O)n3ccsc3n2)cc1,inactive: -8.09%
2,O=S(=O)(c1ccccc1)c1nc(-c2ccco2)oc1SCc1ccc(F)cc1,inactive: -35%
3,CSCC[C@H](NC(=O)[C@H](Cc1c[nH]c2ccccc12)NC(=O)CCNC(=O)OC(C)(C)C)C(=O)N[C@@H](CC(=O)O)C(=O)N[C@@H](Cc1ccccc1)C(N)=O,inactive: 2.13%
4,Cc1ccc(NC(=O)Cn2c(=O)cc(-c3ccccc3)c3c(C)nn(C)c32)c(Cl)c1,inactive: -6.58%
5,CCOC(=O)c1sc2cccc(F)c2c1S(=O)(=O)Nc1ccccc1F,inactive: -13.3%
6,Cc1ccc(C)c(NC(=O)Cn2c(=O)n(CC(=O)NCCc3ccccc3)c(=O)c3ccccc32)c1,inactive: -6.4%
7,O=C(CSc1nnc(-c2ccc(Cl)cc2)c(-c2ccc(Cl)cc2)n1)NC1CCCC1,inactive: -8.28%
8,N#Cc1ccccc1NC(=O)C(=O)NCC(c1cccnc1)N1CCc2ccccc21 (configuration not stated),inactive: -25%
9,O=C(Nc1cc(F)ccc1F)c1cnn2c(C(F)F)cc(-c3ccccc3)nc12,inactive: -8.44%
10,COC(=O)c1ccc(NC(=O)CSc2nc3cc4ccccc4cc3[nH]2)cc1,inactive: -8.98% [at 11.5 µM]
11,CC(C)NNC(=O)c1ccncc1,inactive: -4.08%
12,O=C(c1ccccc1)c1ccc2nc(N3CCN(c4ccc(F)cc4)CC3)c3nncn3c2c1,inactive: -4.65%
13,Cc1ccc(S(=O)(=O)c2nnn3c2nc(N2CCN(c4cccc(C)c4C)CC2)c2ccccc23)cc1C,inactive: 3.22%
14,COc1ccccc1-c1cc2nc(C)c(CCC(=O)NC3CCCCC3)c(C)n2n1,inactive: -31.9%
15,O=C(NC1CCCCC1)c1ccc2c(c1)N(Cc1cccc(Cl)c1)C(=O)c1ccccc1S2=O (configuration not stated),inactive: -19%
16,CCc1ccc(NC(=O)c2sc3nc(C)cc(C)c3c2NC(=O)c2ccccc2OC)cc1,inactive: 23.5%
17,CCN(Cc1ccccc1)C(=O)CCS(=O)(=O)c1ccc2c(c1)CCN2C(C)=O,inactive: -6.96%
18,COc1ccc(CN2CCN(S(=O)(=O)c3ccc(NC(C)=O)cc3)CC2)c(OC)c1OC,inactive: -29.7%
19,O=C(NCc1ccco1)c1ccc2c(c1)N(Cc1cccc(Cl)c1)C(=O)c1ccccc1S2=O (configuration not stated),inactive: -39.9%
20,CCOc1ccc(CCNC(=O)Cn2c(C)c3cnn(-c4ccccc4)c(=O)c3c2C)cc1,inactive: -13.9%
21,COc1cc(OC)c(NC(=O)CSc2cc(=O)n(C)c3ccc(Cl)cc23)cc1Cl,inactive: -17.9%
22,CC(=O)c1cccc(Nc2nc(-c3ccccc3Cl)nc3ccccc23)c1,inactive: -31.2%
23,Cc1ccccc1Cn1c2ccccc2c2cnn(CC(=O)NCCc3ccc(Cl)cc3)c(=O)c21,inactive: 13.8%
